Common to all, as to assay: co-IP; 293T transiently transfected with C-terminally 3×Flag-tagged MTBP; anti-FLAG antibody on Protein G Dynabeads, lysis buffer 20 mM HEPES, 150 mM NaCl, 10% glycerol, 0.1% Triton X-100, 1 h at 4°C; endogenous Treslin/TICRR and Cdk8 by immunoblot
On the technique in general: A western blot detects proteins with antibodies after separation by electrophoresis.

Sequences of proteins named here, by UniProt entry; tags and fusion partners are left off.
UniProt P49336: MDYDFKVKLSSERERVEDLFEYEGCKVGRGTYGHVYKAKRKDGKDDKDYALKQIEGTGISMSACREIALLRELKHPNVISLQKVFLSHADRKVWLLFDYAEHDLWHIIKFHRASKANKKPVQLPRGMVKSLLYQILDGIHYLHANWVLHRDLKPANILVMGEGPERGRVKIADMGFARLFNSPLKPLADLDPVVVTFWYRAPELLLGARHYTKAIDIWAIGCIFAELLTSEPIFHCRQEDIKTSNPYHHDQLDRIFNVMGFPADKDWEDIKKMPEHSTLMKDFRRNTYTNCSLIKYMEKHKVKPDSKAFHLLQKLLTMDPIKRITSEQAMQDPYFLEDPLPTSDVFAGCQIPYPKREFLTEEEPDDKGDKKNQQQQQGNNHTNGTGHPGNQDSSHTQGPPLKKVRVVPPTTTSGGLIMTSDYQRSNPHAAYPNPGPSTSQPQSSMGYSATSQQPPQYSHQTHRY
UniProt Q7Z2Z1: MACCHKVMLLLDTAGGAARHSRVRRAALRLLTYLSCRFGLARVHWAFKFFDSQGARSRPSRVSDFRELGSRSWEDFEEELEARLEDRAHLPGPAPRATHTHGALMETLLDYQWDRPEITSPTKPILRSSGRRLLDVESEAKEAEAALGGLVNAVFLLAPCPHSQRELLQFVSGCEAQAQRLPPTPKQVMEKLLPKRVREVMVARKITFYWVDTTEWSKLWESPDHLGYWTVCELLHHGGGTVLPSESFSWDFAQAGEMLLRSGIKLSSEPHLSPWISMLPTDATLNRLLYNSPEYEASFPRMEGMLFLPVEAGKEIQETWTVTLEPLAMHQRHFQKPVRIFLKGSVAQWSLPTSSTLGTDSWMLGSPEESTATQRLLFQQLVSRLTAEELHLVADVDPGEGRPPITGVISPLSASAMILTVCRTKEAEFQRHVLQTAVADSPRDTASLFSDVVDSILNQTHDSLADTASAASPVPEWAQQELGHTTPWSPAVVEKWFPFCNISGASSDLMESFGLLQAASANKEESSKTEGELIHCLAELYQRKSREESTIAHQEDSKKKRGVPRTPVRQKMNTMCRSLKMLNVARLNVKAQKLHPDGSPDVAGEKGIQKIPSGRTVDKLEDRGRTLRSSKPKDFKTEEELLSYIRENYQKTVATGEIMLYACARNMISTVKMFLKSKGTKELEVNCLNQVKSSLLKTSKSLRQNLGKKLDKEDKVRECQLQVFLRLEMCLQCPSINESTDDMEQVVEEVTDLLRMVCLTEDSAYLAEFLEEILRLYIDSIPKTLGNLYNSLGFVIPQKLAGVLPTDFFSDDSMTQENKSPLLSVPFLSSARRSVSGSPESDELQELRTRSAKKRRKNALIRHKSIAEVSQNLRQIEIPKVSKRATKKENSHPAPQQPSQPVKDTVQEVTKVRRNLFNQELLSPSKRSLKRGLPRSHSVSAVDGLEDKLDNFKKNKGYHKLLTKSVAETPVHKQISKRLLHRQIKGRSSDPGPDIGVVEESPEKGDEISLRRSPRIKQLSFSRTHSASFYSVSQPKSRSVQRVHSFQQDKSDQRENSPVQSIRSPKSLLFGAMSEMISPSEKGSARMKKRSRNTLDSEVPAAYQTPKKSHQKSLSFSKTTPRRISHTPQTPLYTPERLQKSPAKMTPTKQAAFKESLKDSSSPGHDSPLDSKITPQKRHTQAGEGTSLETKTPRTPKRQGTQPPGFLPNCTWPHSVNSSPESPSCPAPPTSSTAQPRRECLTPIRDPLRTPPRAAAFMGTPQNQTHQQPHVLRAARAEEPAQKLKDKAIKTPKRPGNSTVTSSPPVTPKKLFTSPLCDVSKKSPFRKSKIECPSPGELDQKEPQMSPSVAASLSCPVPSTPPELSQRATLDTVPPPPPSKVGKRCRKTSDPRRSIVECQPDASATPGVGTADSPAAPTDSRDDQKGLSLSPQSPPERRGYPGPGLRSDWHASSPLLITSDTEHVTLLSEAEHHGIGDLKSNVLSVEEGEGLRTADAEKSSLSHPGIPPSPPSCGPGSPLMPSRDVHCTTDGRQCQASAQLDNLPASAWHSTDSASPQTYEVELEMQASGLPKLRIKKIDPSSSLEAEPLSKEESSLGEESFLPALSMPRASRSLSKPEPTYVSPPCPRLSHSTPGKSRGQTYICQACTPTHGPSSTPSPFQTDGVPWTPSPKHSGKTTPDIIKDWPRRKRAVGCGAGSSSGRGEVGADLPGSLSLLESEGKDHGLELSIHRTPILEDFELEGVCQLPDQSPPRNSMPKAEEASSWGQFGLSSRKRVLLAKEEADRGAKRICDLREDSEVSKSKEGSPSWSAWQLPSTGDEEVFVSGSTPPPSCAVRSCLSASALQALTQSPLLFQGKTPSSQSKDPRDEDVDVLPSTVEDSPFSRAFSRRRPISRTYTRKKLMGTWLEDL

Assay [1] has as its target T1, MTBP-m1–6, C-terminally 3×Flag-tagged (293T) (human) (UniProt Q96DY7).
T1 sequence: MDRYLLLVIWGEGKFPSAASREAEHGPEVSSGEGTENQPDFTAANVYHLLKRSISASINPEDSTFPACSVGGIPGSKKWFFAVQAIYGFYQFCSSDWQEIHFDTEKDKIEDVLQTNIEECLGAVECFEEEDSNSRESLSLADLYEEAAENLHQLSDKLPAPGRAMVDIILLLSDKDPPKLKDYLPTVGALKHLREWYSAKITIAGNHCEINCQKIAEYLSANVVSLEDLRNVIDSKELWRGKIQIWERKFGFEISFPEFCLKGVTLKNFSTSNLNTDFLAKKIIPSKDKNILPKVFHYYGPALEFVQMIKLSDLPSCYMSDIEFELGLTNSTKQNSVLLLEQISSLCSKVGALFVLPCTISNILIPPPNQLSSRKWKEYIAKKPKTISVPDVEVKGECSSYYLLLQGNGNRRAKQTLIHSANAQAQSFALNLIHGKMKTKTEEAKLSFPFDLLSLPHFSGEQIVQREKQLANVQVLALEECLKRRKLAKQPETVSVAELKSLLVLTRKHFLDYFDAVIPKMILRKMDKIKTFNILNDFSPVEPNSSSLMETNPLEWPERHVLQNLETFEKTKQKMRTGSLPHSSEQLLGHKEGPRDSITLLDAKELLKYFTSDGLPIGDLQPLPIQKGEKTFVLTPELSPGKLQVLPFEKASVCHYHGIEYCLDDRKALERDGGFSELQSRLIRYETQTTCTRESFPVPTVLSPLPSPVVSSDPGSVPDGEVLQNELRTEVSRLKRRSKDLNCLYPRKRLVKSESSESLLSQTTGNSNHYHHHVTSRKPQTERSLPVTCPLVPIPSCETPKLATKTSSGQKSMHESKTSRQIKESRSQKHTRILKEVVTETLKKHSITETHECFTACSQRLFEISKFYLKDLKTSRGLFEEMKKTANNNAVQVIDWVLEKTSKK

Assay [2] has as its target T2, MTBP-Δphyr2, C-terminally 3×Flag-tagged (293T) (human) (UniProt Q96DY7).
T2 sequence: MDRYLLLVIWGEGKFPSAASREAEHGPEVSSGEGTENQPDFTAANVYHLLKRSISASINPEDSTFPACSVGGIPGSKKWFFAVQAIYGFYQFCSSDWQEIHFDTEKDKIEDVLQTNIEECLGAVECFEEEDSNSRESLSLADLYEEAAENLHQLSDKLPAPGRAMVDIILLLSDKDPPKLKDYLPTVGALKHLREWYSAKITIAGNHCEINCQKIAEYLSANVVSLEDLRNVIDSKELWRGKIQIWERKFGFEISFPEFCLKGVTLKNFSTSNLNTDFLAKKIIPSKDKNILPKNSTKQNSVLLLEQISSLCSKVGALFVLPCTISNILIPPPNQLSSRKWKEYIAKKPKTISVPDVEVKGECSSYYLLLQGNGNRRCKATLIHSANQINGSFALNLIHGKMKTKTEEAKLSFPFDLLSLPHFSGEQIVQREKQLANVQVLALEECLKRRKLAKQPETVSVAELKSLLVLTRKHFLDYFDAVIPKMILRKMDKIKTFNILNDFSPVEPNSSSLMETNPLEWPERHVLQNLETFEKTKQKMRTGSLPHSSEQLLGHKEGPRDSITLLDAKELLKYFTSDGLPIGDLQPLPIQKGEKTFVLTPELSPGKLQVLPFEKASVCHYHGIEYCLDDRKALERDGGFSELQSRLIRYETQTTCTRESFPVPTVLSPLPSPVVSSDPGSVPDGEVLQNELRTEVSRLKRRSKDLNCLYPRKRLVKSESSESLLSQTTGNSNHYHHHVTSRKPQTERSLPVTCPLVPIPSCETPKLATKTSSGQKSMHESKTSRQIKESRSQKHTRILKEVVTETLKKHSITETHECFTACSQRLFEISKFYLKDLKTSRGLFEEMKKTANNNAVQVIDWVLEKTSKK

In assay [3] the target is T3, MTBP-5m, C-terminally 3×Flag-tagged (293T) (human) (UniProt Q96DY7).
T3 sequence: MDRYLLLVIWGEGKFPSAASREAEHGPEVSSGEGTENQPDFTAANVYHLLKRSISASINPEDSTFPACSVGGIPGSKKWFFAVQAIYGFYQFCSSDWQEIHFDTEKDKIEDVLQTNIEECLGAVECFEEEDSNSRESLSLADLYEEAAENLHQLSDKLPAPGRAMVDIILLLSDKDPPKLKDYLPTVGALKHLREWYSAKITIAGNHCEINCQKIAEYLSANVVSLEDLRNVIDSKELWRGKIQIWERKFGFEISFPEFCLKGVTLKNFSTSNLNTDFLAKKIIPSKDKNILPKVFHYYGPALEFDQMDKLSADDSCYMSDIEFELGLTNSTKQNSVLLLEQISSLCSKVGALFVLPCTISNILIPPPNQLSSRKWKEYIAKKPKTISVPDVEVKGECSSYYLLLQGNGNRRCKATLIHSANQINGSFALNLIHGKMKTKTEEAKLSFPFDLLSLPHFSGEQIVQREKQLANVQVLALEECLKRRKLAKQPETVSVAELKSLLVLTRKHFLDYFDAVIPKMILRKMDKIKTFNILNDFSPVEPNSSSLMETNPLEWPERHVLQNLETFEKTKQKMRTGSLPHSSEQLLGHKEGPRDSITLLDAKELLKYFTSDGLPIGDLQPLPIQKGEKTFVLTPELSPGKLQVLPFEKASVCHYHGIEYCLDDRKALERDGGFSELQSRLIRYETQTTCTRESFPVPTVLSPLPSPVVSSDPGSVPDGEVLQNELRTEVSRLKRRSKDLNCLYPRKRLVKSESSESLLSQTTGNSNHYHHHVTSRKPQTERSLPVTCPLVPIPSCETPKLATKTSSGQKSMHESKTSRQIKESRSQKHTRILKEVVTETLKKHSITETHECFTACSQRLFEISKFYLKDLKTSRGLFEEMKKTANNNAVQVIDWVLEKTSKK

These are yes or no findings as the source states them, for the method shown. Binding seen in cells or lysates may run through a third protein. Some entries that bind do so weakly or less than the wild type. Sequences can lack the tags named with a protein.

Turning to “Cdk8 (cyclin-dependent kinase 8), endogenous (from UniProt P49336 1-464) (enzyme)”, the binding entry in assay [1], in assay [2] and in assay [3] was “binds” in each case.
With “Treslin/TICRR (TopBP1-interacting replication stimulating protein/TopBP1-interacting checkpoint and replication regulator), endogenous (from UniProt Q7Z2Z1 1-1910)”, the binding result in assay [1], in assay [2] and in assay [3] was “no binding” in each case.

The values are drawn from PMC6377148.
